Results published in PMC12136788.
The other results are listed elsewhere or left out.

T1: UNK ZnF1-3 (human, UniProt Q9C0B0 31-174)
T1 sequence: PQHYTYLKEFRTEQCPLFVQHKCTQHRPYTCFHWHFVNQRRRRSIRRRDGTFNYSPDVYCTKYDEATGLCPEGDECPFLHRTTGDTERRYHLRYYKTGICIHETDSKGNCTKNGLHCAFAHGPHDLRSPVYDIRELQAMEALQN

B1: chr4:140556289:140556290:+_ENSMUSG00000036622_ENSMUST00000037055|mus_mus|mus_mus_mus_hu_False|28_68 (ssRNA)
RNA: GGGAGUUCUACAGUCCGACGAUCGAUGGAGCUCACCAGGCCCCCUUUUGCCGUGCAGAACCCUGUGCGAGUCACCACUGCCAGGACGUGCGGUCCCACAUAGGCCCGGGCCUGCAGGAUGAGGGUCCCGCAGAAGAGUGUGUGCAACAGAGGAUUGAGCAUCA
B2: chr6:41757443:41757444:+_ENSG00000214736_ENST00000398881|hu_mus|hu_hu_hu_mus_False|58_78 (ssRNA)
RNA: GGGAGUUCUACAGUCCGACGAUCGAACCGUGCAGAGGCAACAUCUCAGCCGACACUGUGGACUCAAGGGGCAGUGGGAAACUAGGCAGGCAAGGAGAGGGAGUCAACUUCAGCUGCCACUCAGGUAGGAUCUUGUGGUCACAGCAACAGAGGAUUGAGCAUCA
B3: chr3:119450855:119450856:-_ENSMUSG00000028134_ENSMUST00000029780|mus_mus|FALSE|FALSE (ssRNA)
RNA: GGGAGUUCUACAGUCCGACGAUCUGUGGUGCCACUAAGAGGUGUAUUUGCUGUCUGGACCGCUGUCACAGCUUGAAGAACUACUUGCGCACGUUGGUUUAAUGUAUUAUCUGUCUUUAGUUCUUUGUGAUUGGAGUACUGGAUCAACAGAGGAUUGAGCAUCA
B4: chr12:56499883:56499884:+_ENSMUSG00000021024_ENSMUST00000021412|mus_hu|FALSE|FALSE (ssRNA)
RNA: GGGAGUUCUACAGUCCGACGAUCGGUAAUGUGGCGGUCAAAACCGGCGCUGGAACCACGGGACAUGUUGGUAGAAGCACUACUUUAAACACAAUCCCUGGGCCCCGUAGCUCCCGCACCAGGCACACAAGCACCUCCCGGAAGCAACAGAGGAUUGAGCAUCA
B5: chr4:17845017:17845018:+_ENSG00000109805_ENST00000514176|hu_mus|hu_hu_hu_mus_False|18_48 (ssRNA)
RNA: GGGAGUUCUACAGUCCGACGAUCGCUCUCUUAACUUGUAUCUUCAUUAAGGAACUCUGCAAGGUUAAGUUUACUUUUCUGUAGCGCGCGGUUUUGGGCUCGUCUGGGUAAUCUCAUUUCAUUUCUGGAUGGUGGUUCAUGAUCCAACAGAGGAUUGAGCAUCA
B6: chr8:27252840:27252841:+_ENSMUSG00000013878_ENSMUST00000014022|mus_mus|FALSE|FALSE (ssRNA)
RNA: GGGAGUUCUACAGUCCGACGAUCCAUGUCACAGCCAUCAAAGACAACCAAAUCAGUAUGAACCUCAGUAGUUAGGCGUCUAAUACACAUUUCCUCAUUCUGCCCAAGGCACGAUGAAUCUGAGCCAAAUAAUGCCAUCUACAACAACAGAGGAUUGAGCAUCA
B7: 63920571_64006334_732_CDS_ENSG00000154001_ENST00000337537|human|control|control (ssRNA)
RNA: GGGAGUUCUACAGUCCGACGAUCGAACAGUUCAGGCUGCUCUGAGGAUGGAACGUCUUUUAGCAGCGGCAGAGGUGUUAACUCAAUAGGCUUGCCUUGAGACCUAAACUGUGAGGAACUUUGCGACCUCUUCUGUCUGGCUUUCAACAGAGGAUUGAGCAUCA
B8: chr3:57646030:57646031:-_ENSMUSG00000027805_ENSMUST00000066882|mus_hu|motif|central (ssRNA)
RNA: GGGAGUUCUACAGUCCGACGAUCUAAAUCUGUACAUUAUCCACAAGGCCCAAACAAUAGAAGCAAAUACUAGAAUGUCCCGGAAGUAGUGCCAUUCGAAAGAAACCCUUAAUAGGUCAGUUAAAAUCCAUCUCACAAUAGCAACAACAGAGGAUUGAGCAUCA
B9: 98563492_98564757_6354_CDS_ENSG00000196367_ENST00000456197|human|control|control (ssRNA)
RNA: GGGAGUUCUACAGUCCGACGAUCACUGGGCAUUUAAUUCAAGGUCUUCCGGAAAGCGUUUUUCUAUGUAAGUCAUCAUCUUCACAAGCAAAAUGGACUUCUCCCGGAGUGUAGGUGUCUGAUUGGCUGCCAUUGGGGAGUUAUCAACAGAGGAUUGAGCAUCA
B10: chr17:32491106:32491107:-_ENSMUSG00000024050_ENSMUST00000163107|mus_hu|motif|central (ssRNA)
RNA: GGGAGUUCUACAGUCCGACGAUCAUCGAUAACCAAAAUGUGGCCACUGAAAAAAGUUAAAAGGUCAAUCAGCUCCUGGCUUCGGGCUGGCCCAGGAUUGCAAAAUAAAAAGAUCCACGUUCCUUAUUCUCUACACAAAACGCGCAACAGAGGAUUGAGCAUCA
B11: chr10:79795341:79795342:+_ENSG00000138326_ENST00000360830|hu_mus|FALSE|FALSE (ssRNA)
RNA: GGGAGUUCUACAGUCCGACGAUCGUGGGUUCUGAAUCCAAAUACAAAGAUGACAUCUGGUGUGGUUUUGUACAUUUUGGCCAGCUUUUCCCGAAUUUCUGUCUUUGGUACUGUUGCCUUCCCAGGAUGAAGGACAUCAAUGACCAACAGAGGAUUGAGCAUCA
B12: chr17:62499352:62499353:-_ENSG00000108654_ENST00000581693|hu_hu|FALSE|FALSE (ssRNA)
RNA: GGGAGUUCUACAGUCCGACGAUCGUCUUAUUUGAUCCACAAUCUUCCUUAUUUGGGGUUCAAAGCCCAUAUCAAGCAUUCUAUCUGCUUCAUCAAGGACAAGGUAGGUUGUUCUUCUCAGAUUGGUUUUUCCACACUCUAAAACAACAGAGGAUUGAGCAUCA
B13: chrX:117043865:117043866:-_ENSG00000003096_ENST00000371882|hu_hu|FALSE|FALSE (ssRNA)
RNA: GGGAGUUCUACAGUCCGACGAUCGCGAAGCCAACGACAGGUAGCCUUAAAGAGCUCAAGUUCAGUACAGUGCUUAAGGCUAUUACUGGAAAGCACGAAGGCAAGACGCUCAAAAGGGAGUUUCAAGAACUCCCCUGUGCUCAGCAACAGAGGAUUGAGCAUCA
B14: 106500355_106501660_140_3pUTR_ENSMUSG00000070436_ENSMUST00000094154|mouse|control|control (ssRNA)
RNA: GGGAGUUCUACAGUCCGACGAUCAUCAUUGCCUGCCUUUUUCAUUCUGGGCCGGGCUGGGCUGCUCCGGGACCGACAGGGCAAUCGCUCCUCAGACAGGCUCUGCUCAGCUCACUGCCCCGGGCCCUGGAUCUAUAUAUGGCUCAACAGAGGAUUGAGCAUCA
B15: chr6:38652254:38652255:-_ENSG00000124767_ENST00000373365|hu_hu|hu_hu_hu_mus_False|48_78 (ssRNA)
RNA: GGGAGUUCUACAGUCCGACGAUCCGAGAACUUCAUAGCAGGGAAGUCAAGCUUCUGGAUUAGCGUCAGUCCAAGAACCCUCGUAUAAAAAUCCAGUGACUUCUUAGGAUCCUUAAUUCUUAGCAUCGUUUGCUGCAGUAGAAACAACAGAGGAUUGAGCAUCA
B16: chr22:19452774:19452775:-_ENSG00000070010_ENST00000399523|hu_hu|hu_hu_hu_mus_False|38_98 (ssRNA)
RNA: GGGAGUUCUACAGUCCGACGAUCCUUCUCAUUGUAGUUGAUGGCAAUCACAUCUCCAGUCGUCAGACAGGCGAAGUUUCUCAAUGCAUUUUCUAAUACGGCUUUGGGGUUGGUAAUAUCCAGGAAGUCUGGGCUCUGAGGCUGCAACAGAGGAUUGAGCAUCA
B17: chr3:10015032:10015033:+_ENSMUSG00000027533_ENSMUST00000029046|mus_mus|mus_mus_mus_hu_True|78_88 (ssRNA)
RNA: GGGAGUUCUACAGUCCGACGAUCGUUUUUACCAUCACAAGUGAUGAUACAGUCUGGCUUGGCCAUGGCGCCCAUUUUUCGCAAAGCUAUUCCCACUCCUAGCUCCUUCAUGUAUUCAUCAAAGCCUUUGCUGUCCACCAGGCGCAACAGAGGAUUGAGCAUCA
B18: chrX:71549400:71549401:+_ENSMUSG00000019087_ENSMUST00000019231|mus_hu|mus_mus_mus_hu_False|8_108 (ssRNA)
RNA: GGGAGUUCUACAGUCCGACGAUCGCAAGGAAGAGGAGGAAGCUCUUCAGUCCAGUGCGCUGCAGGGUGGGAAAGCAACAACACGGACACCGUCCCACCCUCAACCCCCCCACUGGCACAGGGUCACAUCUGGGUCAUCAAAGACAACAGAGGAUUGAGCAUCA
B19: chr3:98531265:98531266:-_ENSG00000057019_ENST00000326840|hu_mus|motif|central (ssRNA)
RNA: GGGAGUUCUACAGUCCGACGAUCUCCGAGCAGUUCCACUUUCAUGGCAAUUUUCUGUUGCCACUGGACAGGGUUCACUCGGAUGAAACGUGCAAUAAUUGGUGGCAAAAAGUUAUUACGAACAUCCUUGUGAUAAUCUUUGUUCAACAGAGGAUUGAGCAUCA
B20: chr7:136912681:136912682:-_ENSG00000105894_ENST00000348225|hu_hu|motif|central (ssRNA)
RNA: GGGAGUUCUACAGUCCGACGAUCAAACGCUACUACAAAAAUUUUCUUUUCUUUUUGUUUUUGCUUAUUGUGUACUUAGCGGUAGAUAAUUUUUGAAUACAAAGCCUACGGUACAUAUAAAUGCAAUAGUUAACUGAUCCUGUUCAACAGAGGAUUGAGCAUCA
B21: chr8:74858975:74858976:-_ENSG00000154582_ENST00000284811|hu_mus|hu_hu_hu_mus_True|88_88 (ssRNA)
RNA: GGGAGUUCUACAGUCCGACGAUCGACCUUGUAGGUAAAAUACAUGCAUACUUUCGAUAGCACAUGUGAGGGGAUCUCUCUAAAAUUGACCUCGUUGGUUUCAUUCUCAGCAAACUGACCUGGACCACUCAACAUAGCCUUUAUCAACAGAGGAUUGAGCAUCA
B22: chr13:100518589:100518590:+_ENSG00000125246_ENST00000339105|hu_hu|motif|central (ssRNA)
RNA: GGGAGUUCUACAGUCCGACGAUCUUCUCGUGACUGUCUAAGCAGCCCAGCUCCAUCUCGAAAGUCAAUGUACACCAGAUCGGUGGCUUGGAGACCAAAGGCUUUCGCUAUGACAACAAUCUUUUGCCGGGCGUAGAGAAUAUCCAACAGAGGAUUGAGCAUCA

Target: T1, UNK ZnF1-3
Assay: nsRBNS (natural sequence RNA bind-n-seq); RBNS binding buffer (assumed for nsRBNS): 25 mM Tris pH 7.5, 150 mM KCl, 3 mM MgCl2, 0.01% Triton X-100, 500 ug/ml BSA, 20 U/ml SUPERase-In, 4 C; UNK is unkempt and MSI1 is Musashi-1; names of the RNAs are library labels; protein concentration not given here; high values mean tight binding

| Binder | binding signal [enrichment R] |
| --- | --- |
| B1 | 0.723 |
| B2 | 1.97 |
| B3 | 0.675 |
| B4 | 0.659 |
| B5 | 0.427 |
| B6 | 1.11 |
| B7 | 1.07 |
| B8 | 1.37 |
| B9 | 1.75 |
| B10 | 1.41 |
| B11 | 0.961 |
| B12 | 0.441 |
| B13 | 0.818 |
| B14 | 0.587 |
| B15 | 1.08 |
| B16 | 0.937 |
| B17 | 0.553 |
| B18 | 1.44 |
| B19 | 0.435 |
| B20 | 0.617 |
| B21 | 0.83 |
| B22 | 0.616 |
